The list shows a part of the results.

In the experiment the test system is PfAP2-HC AP2 domain (GST-tagged). Description: gcPBM binding intensity (ln(normalized median fluorescence intensity)); higher = stronger DNA binding. A digest of the protocol: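 Binding intensity is the highest Masliner-normalised natural-log median intensity over replicate spots in either probe orientation. To obtain it, GST-tagged P. falciparum DNA-binding domains made in E. coli were incubated for 1 h on an Agilent 4 × 180k array of primer-extended double-stranded 36-bp intergenic genomic probes plus negative controls. Detection used Alexa488 anti-GST antibody with scanning at 488 nm.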
Turning to “TTTCACTACACAAATACACACAAAAATATATGTGCA [CACACA_site2632]”, the “gcPBM binding intensity (ln)” value came out at 9.8. For “TTCTATTTTATATGTGCACACATATACACCCACAAA [CACACA_site1130]” the value was 10.1; for “TTCTTTTTGAAACACACACACACAAGAAAATATATA [CACACA_site3110]”, 10.8. “AGATACAAGCACTATAGTACACATACTAAAAATATA [XGTACX_site5849]”: the “gcPBM binding intensity (ln)” value came out at 9.73. Take “TATAATTAAAATTTGTGTACGTATGACAAAACATTT [XGTACX_site7072]”: the “gcPBM binding intensity (ln)” value worked out at 9.56. For “TTTCCTTACCCTTTCCTGGTGTAGAAATTATACTCT [TGCATGCA_negctrl_site116]” the value was 9.61; for AAAAAAATAACAAAAGTGCATTTTTATGAGTTATCT, 9.65; for “ATATATAATTAATAAAGTACATTAATTATTTCTTTT [XGTACX_site3034]”, 9.44. For “TATGTTATATTGGACACACACAATAAACATTATGTA [CACACA_site1657]” the value was 9.94; for “ATATATATATATAAGCGTACGCGTAGTTAAATTAAT [XGTACX_site7693]”, 9.92. As for “ACAAAAAAAATAAGCACACATATATATATATATATA [CACACA_site816]”, the figure is 9.91; as for “AAATGAAAAATAAGGAAAAAAAAAAAAAAAAAAAAA [CACACA_negctrl_site1715]”, 8.63. As to “TAAAATATTTCAAAGGTGCAATGATAATTTAAGACG [GTGCAC_site9609]”, the “gcPBM binding intensity (ln)” value was 9.61. For “ATATTGACAGGAAAAATTTTCTTTGAATCTTTAAAA [CACACA_negctrl_site1191]” the value was 9.29. As for “ACGATAACATTTTTACGTACATATATTTTCACGGAG [XGTACX_site8764]”, the figure is 9.59; as for “TATTCAATACTTAATGCACACAATAAAAAAAATATG [CACACA_site2467]”, 9.72; as for “TACATGATAAGATGTAGTACATAAAAGAATAAATTA [XGTACX_site787]”, 9.8. For “TTTTCAAAAATATATACACACATGCATATTACGGTG [CACACA_site775]” the value was 9.77; for “CCACTAATTATGTGCACACAAATTAAAGGTCTACAA [CACACA_site4259]”, 10; for “GAAATAATTTTTATTTGTACACACATACATATATAT [XGTACX_site1862]”, 10.3. With “AAATTTTATAAAGGAACACACATTTTTTTTTTTTCT [CACACA_site2368]”, the “gcPBM binding intensity (ln)” value turned out to be 9.65.

For the sequence “TTATTCATTTCGAAAAGTACAAATTCTGTTTATTAT [XGTACX_site6892]”, the “gcPBM binding intensity (ln)” value is 9.6. For “ATAATATTTATAAATTGTACTAATGTTCAATAATTA [XGTACX_site7284]” the value was 9.43; for “TTTTGTCGGAAATCGGATAAGAAGAAAAAAAATAAT [GTGCAC_negctrl_site594]”, 9.49; for AAAAAAAAAAAATACGTGCACTATGATATATTATAT, 9.81. For “TTCACTCCATATTATACACACACACTAATGAAAAAA [CACACA_site8991]” the value was 10.3; for “AAAAAAAAAAAAAGTACACACATACATATAAATATA [CACACA_site8533]”, 9.9. As for “CATTTTTTGCTTTCAACACACATACAATATATATAA [CACACA_site6127]”, the “gcPBM binding intensity (ln)” value was found to be 9.75.

With “AAGGATCACGCACAAACACACATATTTATATTTATA [CACACA_site6405]”, the “gcPBM binding intensity (ln)” value was 9.95. As for “CTTTATTTTTTATACACACACAATATGTATATATAT [CACACA_site3550]”, the figure is 9.92. As for “TTTTTATTTTTTGAAACACACACAAAAAAAATGATA [CACACA_site8564]”, the figure is 9.72. For “AAACAAATATATATATGTACTTATAAAAAAAAAAAT [XGTACX_site2211]” the value was 9.77; for “TAAGGATATATATATTCACACACACCGGGAAATATA [CACACA_site8020]”, 10.8. As for “TTTTTGTATTCTTCTTCTTCCAGACTACATTATGTC [XGTACX_negctrl_site235]”, the “gcPBM binding intensity (ln)” value stood at 9.82.

On to “ATATATTTAAAATTGACACACATTTAATGACATTTT [CACACA_site3112]”, for which the “gcPBM binding intensity (ln)” value amounted to 9.69.

“TATATATGGAAAAGAGTCAAAAAGAAAAAAGAAAAA [CACACA_negctrl_site1374]”: the “gcPBM binding intensity (ln)” value was determined as 9.44. As for “TATGAAATATTTATACACAGAACTTCATAATTTTCA [TGCATGCA_negctrl_site509]”, the figure is 9.47; as for “TGGTGATATACGAAATGTACGCAAATCACAAAATAA [XGTACX_site8836]”, 9.61.

For “TCTTTAACAAGTTAAACACACATACCTATATACATA [CACACA_site7237]”, the “gcPBM binding intensity (ln)” value stood at 9.75. As for “AAATAAAAATTAAAAAAATAGAAACGAATTGAATGC [TGCATGCA_negctrl_site365]”, the figure is 9.98; as for “CGCGTATAACGAAATTGTACAAAAAAAATTAAACAT [XGTACX_site6813]”, 9.66; as for “AATTAAACTTTGTTTTTGTTTTTTTTTTTTATATTT [CACACA_negctrl_site1316]”, 9.47.

In the case of “ATATATATAAATATATGTACATAAATATATTTGTAA [XGTACX_site6715]”, the “gcPBM binding intensity (ln)” value worked out at 9.79. Consider “TAATATATATAACATATACACACGTTCATATATATA [CACACA_site462]”, for which the “gcPBM binding intensity (ln)” value worked out at 9.73. As for “TATTTGCAATATTATACACACATTAGATATTGCAAA [CACACA_site7565]”, the figure is 9.7; as for “AACAAATTAATTCTAGTGCAGGACGTATTTGTGTAC [GTGCAC_site9907]”, 9.79; as for “AAAAAAAAAAAAAAATGTACATATATAATATTTATA [XGTACX_site5117]”, 9.5. As for “TACAAAATGTTATATCAATATAGATAAAAAAATGAA [XGTACX_negctrl_site285]”, the figure is 9.69. Take “AATTTTGAGATGTGGTGTACACAAAATTAGTTAGAC [XGTACX_site7033]”: the “gcPBM binding intensity (ln)” value worked out at 9.87.

Take “TCAACGATCACTCGGTGTACTATAAATGAGAGAATT [XGTACX_site1820]”: the “gcPBM binding intensity (ln)” value was determined as 9.42.

With “ATTAAATTAAAATAATGTACTTAATACTTTTGCTTA [XGTACX_site8404]”, the “gcPBM binding intensity (ln)” value was 9.44.

Take “AACAATTTTTAAAGGTGTACAATATGTATATAAGAA [XGTACX_site254]”: the “gcPBM binding intensity (ln)” value was 9.88.

With “ATATATATATATAAAGGTACACATTTATTAAATATA [XGTACX_site7102]”, the “gcPBM binding intensity (ln)” value came out at 9.7. As for “TACAATATAATTTAATGTACATGTGAATATATATAT [XGTACX_site4675]”, the figure is 9.66. As for “TTAAAAAGAGGTGACACACACATATAAATCTAAATC [CACACA_site3738]”, the figure is 10.5; as for “TAATATACTATAAATACACACAAGTGTACATACTTC [CACACA_site983]”, 9.88.

Source of the values: the supplement of paper PMC11417369.
